# Hit rate of the full screen: of about 310,000 compounds, about 2,200 (0.71%) showed an effect of 50% or more. The effect is printed as a negative number. This is one part of the list.
# Biological target: human ether-à-go-go-related gene (hERG) potassium channel (human, UniProt Q12809)
# Assay: primary screen, population patch clamp on CHO cells stably expressing hERG
# Sequence of human ether-à-go-go-related gene (hERG) potassium channel (Q12809 whole entry, looked up): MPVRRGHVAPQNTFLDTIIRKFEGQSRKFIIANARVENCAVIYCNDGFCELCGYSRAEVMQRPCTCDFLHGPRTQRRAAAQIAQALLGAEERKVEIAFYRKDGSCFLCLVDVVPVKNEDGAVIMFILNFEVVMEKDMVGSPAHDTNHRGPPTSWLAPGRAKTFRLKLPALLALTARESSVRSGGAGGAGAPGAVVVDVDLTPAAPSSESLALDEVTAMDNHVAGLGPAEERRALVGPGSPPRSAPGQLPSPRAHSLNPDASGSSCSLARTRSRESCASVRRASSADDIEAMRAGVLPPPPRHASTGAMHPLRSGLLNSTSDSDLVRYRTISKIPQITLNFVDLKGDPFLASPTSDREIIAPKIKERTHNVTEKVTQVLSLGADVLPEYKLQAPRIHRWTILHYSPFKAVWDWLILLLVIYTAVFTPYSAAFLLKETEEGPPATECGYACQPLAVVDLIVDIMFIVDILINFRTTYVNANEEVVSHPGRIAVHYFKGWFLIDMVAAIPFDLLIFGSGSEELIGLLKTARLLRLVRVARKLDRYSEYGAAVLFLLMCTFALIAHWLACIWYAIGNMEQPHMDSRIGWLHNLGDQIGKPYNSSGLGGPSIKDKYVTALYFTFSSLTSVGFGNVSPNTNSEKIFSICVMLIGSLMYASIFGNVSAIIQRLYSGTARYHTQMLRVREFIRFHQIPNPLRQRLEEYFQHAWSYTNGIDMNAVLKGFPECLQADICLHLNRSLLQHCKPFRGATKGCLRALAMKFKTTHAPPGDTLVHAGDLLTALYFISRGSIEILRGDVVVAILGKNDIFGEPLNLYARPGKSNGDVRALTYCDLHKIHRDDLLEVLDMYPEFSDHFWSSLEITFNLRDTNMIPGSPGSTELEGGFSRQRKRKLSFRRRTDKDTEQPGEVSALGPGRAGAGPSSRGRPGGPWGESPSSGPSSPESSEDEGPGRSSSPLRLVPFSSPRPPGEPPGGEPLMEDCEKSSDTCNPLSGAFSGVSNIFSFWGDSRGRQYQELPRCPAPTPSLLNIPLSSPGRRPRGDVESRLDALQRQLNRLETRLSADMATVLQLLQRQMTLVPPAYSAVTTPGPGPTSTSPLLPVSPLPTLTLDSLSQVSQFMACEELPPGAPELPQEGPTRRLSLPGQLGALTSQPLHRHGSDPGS
row,SMILES,"hERG current change (%, negative = inhibition) at 1uM [%]"
1,Cc1cn(C2CC(OC(=O)C(C)C)C(CO)O2)c(=O)[nH]c1=O (stereo not shown),2.33
2,CCOc1ccc(NC(=O)CC2C(=O)N(c3cccc(OC)c3)C(=O)N2C(C)C)cc1 (stereo not shown),4.4
3,O=S(=O)(N1CCCCC1)n1nnc2ccccc21,-5.85
4,Cn1c2ccccc2c2c(C(=O)N3CCN(c4ccc(F)cc4)CC3)cn(C3CCCC3)c(=O)c21,4.09
5,O=C1Nc2ccc(NS(=O)(=O)c3cccs3)c3cccc1c23,-7.05
6,Cc1ccc(NC(=O)CSc2nc3[nH]c(=O)cc(O)c3s2)c(Br)c1,-2.88
7,COc1ccc(C2C/C(=N\O)C(C)(C)O2)cc1 (stereo not shown),9.8
8,COc1ccc(CCNS(=O)(=O)c2cn(C)cn2)cc1OC,17.2
9,CC(OC(=O)C1CC(O)CN1S(=O)(=O)c1ccccc1[N+](=O)[O-])C(=O)N1CCCCC1 (stereo not shown),1.72
10,Cc1cc2nc(-c3ccc(SCc4ccc(C(=O)O)cc4)nc3)[nH]c2cc1C,14.5
11,COc1ccc2cc(S(=O)(=O)c3ccccc3)c(=O)oc2c1,10.6
12,COc1ccc(OC)c(NC(=O)Cn2cc(C(=O)c3ccco3)c3ccccc32)c1,-7.04
13,CCS(=O)(=O)N1CCN(C(C)CCc2ccccc2)CC1 (stereo not shown),12.2
14,C/C(=N\NC(=O)c1ccncc1)C12CC3CC(CC(C3)C1)C2,11.3
15,Cc1cc(C(=O)CSc2ccc(F)cc2)cc(C)c1OC(=S)N(C)C,5.31
16,CN1CCN(C(=O)CCC(=O)NCc2ccc(F)cc2)CC1,9.84
17,COc1ccc(-c2nnn(CC(=O)NCc3cccs3)n2)cc1OC,24.3
18,COCC(=O)NCc1ccc2c(c1)OCO2,3.34
19,COc1cc(OC)cc(C(=O)N[C@H](C(=O)Nc2nc(-c3ccc(F)c(F)c3)cs2)C(C)C)c1,10.8
20,O=C(Nc1nnc(C2=COCCO2)o1)c1ccc(Br)cc1,10.1
21,Cc1ccc2[nH]c(C(=O)O)c(NC(=O)CN3CCN(c4cccc(C)c4C)CC3)c2c1.Cl,14.5
22,S=C(Cc1ccc(-c2ccccc2)cc1)N1CCOCC1,3.74

row,SMILES,"hERG current change (%, negative = inhibition) at 1uM [%]"
1,O=C(N/N=C/c1cccc(OC(=O)N2CCOCC2)c1)c1cccs1,10.5
2,CC(=O)c1ccc(NC(=O)c2ccc(NC(=O)CCS(=O)(=O)c3cccs3)cc2)cc1,12.5
3,COCCN1Cc2cccc(C(=O)N3CCN(c4cc(C)ccc4C)CC3)c2C1=O,1.31
4,CN(C(=O)/C=C/c1cnc2ccccc2c1)C1CCCCC1,6.76
5,CC(c1ccccc1)N1C(=O)NC(NC(=O)c2cccnc2)(C(F)(F)F)C1=O (stereo not shown),8.94
6,O=c1[nH]c(CN2CCOCC2)nc2ccccc12,9.48
7,CN(CC(=O)Nc1ccc(Cl)c(Cl)c1)C(=O)CN1C(=O)NC2(CCCC2)C1=O,0.916
8,COC(=O)C1(c2ccccc2)NC(c2ccc(O)cc2)C2C(=O)N(c3ccc4c(c3)OCO4)C(=O)C21 (stereo not shown),-0.305
9,CC(C)OC(=O)c1nnc(Cc2ccc(Cl)cc2)o1,9.35
10,Cc1nc2nc(-c3ccco3)[nH]n2c(=O)c1Cc1ccccc1,-12
11,CC(C)c1ccc(N(CC(=O)O)S(=O)(=O)c2cccnc2)cc1,6.39
12,COc1ccc([C@@H]2CC=C(C(=O)O)[C@H](c3cccc(Cl)c3)N2S(=O)(=O)c2ccc(Cl)cc2)cc1,15.2
13,c1csc(Cc2nn3c(-c4n[nH]c5c4CCC5)nnc3s2)c1,-1.46
14,COc1ccc(/C=C/C(=O)NC2CCCCCCC2)cc1S(=O)(=O)N1CCOCC1,8.8
15,CCNC(=O)COc1ccc(S(=O)(=O)Nc2ccccc2)cc1,0.774
16,COc1ccc([C@@H]2C=C(C(=O)O)O[C@H](OCCCCO)C2)cc1,12.7
17,C#Cc1ccc([C@@H]2C=C(C(=O)N3CCOCC3)O[C@H](OCc3ccc(CO)cc3)C2)cc1,6.25
18,Cc1nc2scc(C)n2c(=O)c1S(=O)(=O)NCC1CCN(Cc2ccc(Cl)cc2)CC1,-12.8
19,COc1cc(CNc2ccc3[nH]c(=O)[nH]c3c2)ccc1OCc1cccc(C)c1,16.8
20,O=C(c1cc(Br)ccc1OC(F)F)N1CCN2CCCC2C1 (stereo not shown),7.24
21,c1ccc(C[C@H]2CNCCN2CC2CCCCC2)cc1,-1.78

# Source: paper PMC4336329 (PLoS ONE, 2015)
